# Screen size: about 230,000 compounds; about 3,600 (1.6%) were called active. The inconclusive results got no clear call from the source; some entries with a clear call stand among them for comparison. Calls come from the whole dose curve; as a rule, active = well fitted inhibition curve with a large enough effect (not every such curve was filed as active); inconclusive = small, poorly fitted or top-dose-only effect, or another doubt; inactive = no such curve, though single readings can be large or run the other way. Where the call is inconclusive, the potency comes from a doubtful curve fit.
# Biological target: Lysine-specific demethylase 4E (Homo sapiens) (UniProt B2RXH2)
# Sequence of UniProt B2RXH2 (B2RXH2 whole entry, looked up, the tested form may be a part): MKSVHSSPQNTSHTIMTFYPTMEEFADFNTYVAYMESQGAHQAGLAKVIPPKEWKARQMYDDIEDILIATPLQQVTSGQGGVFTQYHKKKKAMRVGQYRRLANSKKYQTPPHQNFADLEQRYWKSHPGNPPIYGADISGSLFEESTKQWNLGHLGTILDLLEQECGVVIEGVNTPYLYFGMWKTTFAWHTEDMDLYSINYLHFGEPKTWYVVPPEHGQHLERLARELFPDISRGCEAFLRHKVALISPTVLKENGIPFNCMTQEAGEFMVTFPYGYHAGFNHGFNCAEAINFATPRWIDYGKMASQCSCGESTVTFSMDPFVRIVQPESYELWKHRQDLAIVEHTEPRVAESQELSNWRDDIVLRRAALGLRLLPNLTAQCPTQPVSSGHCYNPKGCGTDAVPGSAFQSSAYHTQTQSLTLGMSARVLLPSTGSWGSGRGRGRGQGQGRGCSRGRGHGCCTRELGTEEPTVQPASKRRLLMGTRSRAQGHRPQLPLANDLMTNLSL
# Assay: qHTS Assay for Inhibitors of Human Jumonji Domain Containing 2E (JMJD2E)
# Details: JMJD2E catalytic domain, FDH-coupled NADH fluorescence (FDH is formaldehyde dehydrogenase); series mostly up to 57.1 µM
# Note: nearly all actives have a fitted effect of over 50% in size.
# Potency is the fitted concentration of half-maximal effect; tags give direction and shape of the fitted curve.
row,SMILES,Potency
1,Nc1c(S(=O)(=O)O)cc(Nc2ccc(Nc3nc(Cl)nc(Nc4ccc(S(=O)(=O)O)cc4)n3)c(S(=O)(=O)O)c2)c2c1C(=O)c1ccccc1C2=O,inactive
2,CCOc1ccc(-c2nnc(N(CC)C(=O)C3CCC3)s2)cc1,"inconclusive: 39.8 µM [inhibitor, single point]"
3,CC(=O)Nc1ccc2c(c1)N(C(C)=O)c1ccccc1CC2,"inconclusive: 31.6 µM [inhibitor, partial curve]"
4,O=C(c1cnc(N2CCN(c3ccccn3)CC2)c2ccccc12)N1CCN(c2cccc(Cl)c2)CC1,"inconclusive: 17.8 µM [inhibitor, partial curve]"
5,CCOc1ccccc1NC(=O)Cn1c(-c2ccc(Cl)cc2)noc1=O,inactive
6,CCCC1Cc2c(sc3ncnc(N)c23)CO1 (configuration not stated),"inconclusive: 35.5 µM [inhibitor, single point]"
7,COc1ccc(C2/C=C\CN(C(=O)CC(C)C)CC(=O)N2Cc2ccc(F)cc2)cc1 (configuration not stated),"inconclusive: 31.6 µM [inhibitor, partial curve]"
8,COc1cc(C(F)(F)F)nc2c(Br)c(C(C)(C)C)nn12,"inconclusive: 8.91 µM [inhibitor, full curve]"
9,COc1cc(S(=O)(=O)N2CCCCC2)ccc1NC(=O)c1ccc(F)cc1,"inconclusive: 22.4 µM [inhibitor, partial curve]"
10,COc1ccc(N2CCC(CNC(=O)Nc3ccc(C)c(C)c3)C2)cc1 (configuration not stated),inactive
11,Cc1cc2cc(CN(CC3CCCO3)C(=S)Nc3ccccc3)c(=O)[nH]c2cc1C (configuration not stated),"inconclusive: 39.8 µM [inhibitor, single point]"
12,CCOCCCNC(=O)/C(C#N)=C/c1ccc(Cl)c([N+](=O)[O-])c1,active: 20 µM
13,COc1ccccc1-c1nc2s/c(=C\c3cccs3)c(=O)n2n1,"inconclusive: 31.6 µM [inhibitor, single point]"
14,C/C(=C\c1ccccc1)CN1CCC(C(=O)N2CCC(C)CC2)CC1,"inconclusive: 25.1 µM [inhibitor, single point]"
15,CC(/C=C/c1ccco1)=N\NC(=O)c1cc(C)[nH]n1,"inconclusive: 39.8 µM [inhibitor, single point]"
16,O=C(NC(=S)Nc1ccc2c(c1)OCCO2)c1ccccc1,inactive
17,COc1ccc(NC(=O)/C(C#N)=C\c2ccc(N3CCOCC3)o2)cc1,"inconclusive: 39.8 µM [inhibitor, single point]"
18,CC1(C)Cc2c(C#N)c(OCC(=O)c3ccc(Cl)cc3)nc(-c3ccoc3)c2CO1,"inconclusive: 39.8 µM [inhibitor, single point]"
19,CC(C)COc1ccc(C(=O)N2C(=O)c3ccc(N)cc3C2=O)cc1,"inconclusive: 22.4 µM [inhibitor, partial curve]"
20,CCN1/C(=C2\C(=O)N(C)C(=S)N2c2ccccc2)C=Cc2ccccc21,inactive
21,COCCCNC(=O)CCSc1ccc(C)cc1,"inconclusive: 39.8 µM [inhibitor, single point]"
22,CC(C)=N/N=C(\N)SCc1ccccc1,inactive
23,Cc1cc(C2=NNC(=Nc3ccc(S(=O)(=O)N4CCOCC4)cc3)SC2)c(C)n1C,active: 8.91 µM
24,C/C=C/c1ccc(OCc2cc(=O)n3cc(C)ccc3n2)c(OC)c1,"inconclusive: 39.8 µM [inhibitor, single point]"

row,SMILES,Potency
1,Cc1[nH]c2ccccc2c1CC#N,inactive
2,COc1ccccc1N1CCN(/N=C/c2ccc(O)c(O)c2)CC1,active: 28.2 µM
3,COc1ccc(OC)c(-n2c(=S)[nH]c3cc(C(=O)N4CCC(C(N)=O)CC4)ccc3c2=O)c1,inactive
4,COc1ccc2nc(NC(=O)c3ccc(NS(=O)(=O)c4cccs4)cc3)sc2c1,"inconclusive: 28.2 µM [inhibitor, partial curve]"
5,Clc1cccc(Cl)c1CO/N=C/c1c(-c2ccccc2)nc2n1CCS2,"inconclusive: 31.6 µM [inhibitor, single point]"
6,O=S1(=O)N=C(N(CCO)/N=C/C=C/c2ccccc2)c2ccccc21,"inconclusive: 31.6 µM [inhibitor, single point]"
7,O=C(CCCN1C(=O)c2cccc3cccc(c23)C1=O)NC1CCS(=O)(=O)C1 (configuration not stated),"inconclusive: 35.5 µM [inhibitor, single point]"
8,CCOC(=O)C1=C(C)Nc2nc3ccccc3n2C1c1ccccc1 (configuration not stated),"inconclusive: 11.2 µM [inhibitor, partial curve]"
9,Cc1ccc(-n2cccc2C(=S)N=P(N(C)C)(N(C)C)N(C)C)cc1,inactive
10,COC(=O)c1cc(NC2c3ccccc3C(=O)N2c2cccnc2)cc(C(=O)OC)c1 (configuration not stated),"inconclusive: 35.5 µM [inhibitor, single point]"
11,O=C(O)c1ccc(/C=C/c2nc3sc4c(c3c(=O)[nH]2)CCC4)cc1,"inconclusive: 28.2 µM [inhibitor, partial curve]"
12,Cc1ccc(-n2ncc3c(=O)n(CC(=O)NCc4ccco4)cnc32)cc1C,"inconclusive: 14.1 µM [inhibitor, partial curve]"
13,CCn1c(CC(=O)Nc2cccc(Cl)c2Cl)nnc1SCCOc1ccc(OC)cc1,inactive
14,Cc1ccc(/C=N/n2c(-c3ccncc3)n[nH]c2=S)cc1,inactive
15,COc1ccccc1NS(=O)(=O)c1cc(C(=O)NCCN2CCOCC2)ccc1Cl,"inconclusive: 25.1 µM [inhibitor, single point]"
16,O=C(COC(=O)c1ccc(Br)cc1)Nc1ccccc1Br,inactive
17,Cc1csc(CN(C)C(=O)CC2C(=O)NCCN2CC(C)(C)C)n1 (configuration not stated),"inconclusive: 39.8 µM [inhibitor, partial curve]"
18,CCN(CC)S(=O)(=O)c1ccc2c3c(cccc13)C(=O)N2,"inconclusive: 31.6 µM [inhibitor, partial curve]"
19,COc1cc2c(cc1OC)-c1nnc(C)n1C(C)(C)C2,"inconclusive: 22.4 µM [inhibitor, single point]"
20,COc1ccc2c(Cl)c(C(=O)NCCCn3ccnc3)sc2c1Cl,"inconclusive: 17.8 µM [inhibitor, single point]"
21,Cc1cccn2cc(CNC(=O)C3CCCCC3)nc12,"inconclusive: 39.8 µM [inhibitor, single point]"
22,CCCN1C(=O)c2ccccc2NC1c1ccc(OC)c(CSc2ccccn2)c1 (configuration not stated),"inconclusive: 25.1 µM [inhibitor, partial curve]"
23,COC(=O)c1sccc1NC(=O)c1c(C)c(-c2cccc(Cl)c2)nc2ccccc12,"inconclusive: 35.5 µM [inhibitor, single point]"
24,Cc1cccc(NC(=O)c2cn(-c3ccccc3)nc2-c2ccccc2)c1,"inconclusive: 35.5 µM [inhibitor, single point]"

row,SMILES,Potency
1,COc1ccc(OC)c(/C=N/NC(=O)CC2C(=O)NN=C2C)c1 (configuration not stated),"inconclusive: 31.6 µM [inhibitor, partial curve]"
2,CC(=O)OCC1OC(n2c(Br)nc3c(=O)[nH]c(N)nc32)C(OC(C)=O)C1OC(C)=O (configuration not stated),inactive
3,CCc1ccccc1NC(=S)N(CCOC)C(C)c1ccco1 (configuration not stated),inactive
4,C=CCOc1c(Br)cc(/C=N/O)cc1OCC,inactive
5,COc1ccccc1C(=O)NNC(=O)c1nn(Cc2ccccc2)c(=O)c2ccccc12,inactive
6,CSc1nc2nc(C(F)(F)F)cc(-c3ccccc3)n2n1,"inconclusive: 31.6 µM [inhibitor, partial curve]"
7,Cc1ccc(N=C2SC(C(=O)NCCc3ccccc3)CC(=O)N2C)cc1C (configuration not stated),inactive
8,CNc1cc(NS(=O)(=O)c2ccc(N)cc2)nc(NC)n1,"inconclusive: 28.2 µM [inhibitor, single point]"
9,FC(F)(F)c1cc(C(F)(F)F)c2ccc(N3CCN(c4ccc(Cl)cc4)CC3)nc2n1,inactive
10,CCCCCC(=O)Nc1ccc2oc(-c3ccncc3)nc2c1,"inconclusive: 28.2 µM [inhibitor, partial curve]"
11,CCSc1nnc(-c2ccc(S(=O)(=O)NCc3cccs3)cc2)o1,"inconclusive: 39.8 µM [inhibitor, single point]"
12,COc1ccc(-c2ccc(CCC(=O)O)n2C(C)C)cc1,"inconclusive: 28.2 µM [inhibitor, partial curve]"
13,O=C(Nc1cccc(F)c1)c1ccccc1-c1ccccc1,inactive
14,Cc1nnc(N)nc1C,"inconclusive: 31.6 µM [inhibitor, partial curve]"
15,COC(=O)C1=C(NC(=O)COc2ccc(Cl)cc2Cl)CCS1,"inconclusive: 28.2 µM [inhibitor, partial curve]"
16,N#Cc1c(C#N)c(-c2ccccc2)n(-c2ccccc2)c1N,"inconclusive: 31.6 µM [inhibitor, partial curve]"
17,CCN(CC)S(=O)(=O)c1cccc(C(=O)N[C@H](C(=O)Nc2nc3ccccc3s2)C(C)C)c1,"inconclusive: 39.8 µM [inhibitor, single point]"
18,COc1ccc(-c2nc(-c3ccc(O)cc3O)cs2)cc1OC,inactive
19,Cc1c(Cl)cnc(NC(=O)COC(=O)CCS(=O)(=O)c2ccccc2)c1Cl,"inconclusive: 31.6 µM [inhibitor, partial curve]"
20,CCCCC[C@H](O)/C=C/[C@H]1C=CC(=O)[C@@H]1C/C=C\CCCC(=O)O,inactive
21,Cc1ccc2[nH]c(-c3cccc(N)c3)cc2c1,"inconclusive: 31.6 µM [inhibitor, partial curve]"
22,CCCc1nc2ccccc2c(C(=O)OCC(=O)Nc2c(C)n(C)n(-c3ccccc3)c2=O)c1CC,inactive
23,COC(=O)C(NNc1ccccc1)(NC(=O)c1ccccc1F)C(F)(F)F (configuration not stated),inactive
24,Nc1ccc(NC(=O)c2ccccc2)c2c1C(=O)c1ccccc1C2=O,inactive

# Source: PubChem BioAssay AID2147 (National Center for Advancing Translational Sciences (NCATS), 2009)
